Measured values reported in publication PMC12136788.
The other results are listed elsewhere or left out.

B1: chr8:120459219:120459329:+|CDS|ENSG00000172167|unk|FALSE|unique (ssRNA)
RNA: GGGAGUUCUACAGUCCGACGAUCUUUGGAUUUGAAAUUAGUUUUCCUGAAUUUUGUUUAAAGGGAGUCACACUUAAGAAUUUUAGUACUUCUAAUUUAAAUACUGACUUCCUUGCCAAAAAGAUCAUACCAUCAAAGGAUAAGCAACAGAGGAUUGAGCAUCA
B2: chr5:154898482:154898583:-|CDS|ENSG00000082516|unk|FALSE|unique (ssRNA)
RNA: GGGAGUUCUACAGUCCGACGAUCUUUGGCCAAAAAGGGGGAUGCGGCAUCACUUAGAACGGCUGCAGAGUUGGCUGCCAUCGUAGGAGAGGAUGAGUUGUCUGCUUCCCUGGCUCUCAGAUGUGCCCAAGAGCUGCUUCUGGCCAACAGAGGAUUGAGCAUCA
B3: chrX:23682378:23682503:+|CDS|ENSG00000123131|unk|FALSE|unique (ssRNA)
RNA: GGGAGUUCUACAGUCCGACGAUCUUCAUUAUUGAUGACAAAGGAAUCCUAAGACAAAUUACUCUGAAUGAUCUUCCUGUGGGUAGAUCAGUGGAUGAGACACUACGUUUGGUUCAAGCAUUCCAGUACACUGACAAACACGGACAACAGAGGAUUGAGCAUCA
B4: chr16:89696356:89697333:-|three_prime_utr|ENSG00000158792|control|control|control (ssRNA)
RNA: GGGAGUUCUACAGUCCGACGAUCAGGAGCCUUUCCACAUUUCCCCACCCUCGGAACCCAGACGCAUGCCCACAUGUGCUGGGUAGAGGGGUCCAGCCUGUUCCAGCCAGUGCCUGAACCUGUCCCUGAGAAGGACCCUGUGCCCAACAGAGGAUUGAGCAUCA
B5: chr8:97725557:97725573:+|3pUTR|ENSG00000147649|msi1_unk|total|mutant (ssRNA)
RNA: GGGAGUUCUACAGUCCGACGAUCGUUGACUUUAAAAAUGAAAUCAUUCACAAACUUUUGGUAUAUGAUGGAGAAUGAAAAACCCGAGUCAGACAGCUUUAAUUGACAUUGUCAACACCUCCAGUUAUCAGGAAUACAUUUUUUCAACAGAGGAUUGAGCAUCA
B6: ENSG00000107863:be:win_451|CDS|ENSG00000107863|bound_else_gene|NA|bound_elsewhere_windowed (ssRNA)
RNA: GGGAGUUCUACAGUCCGACGAUCUUGGAACUUAGUGUUAUGCCAAAAGAUGAAGACAUUCUCCAAGUGCUACAGUUUACAAAGGAUGUCACAGCACUGGCAUAUUCUCAAGAUGCCUACCUGAAAGGCAACGAAGCUUAUAGCCAACAGAGGAUUGAGCAUCA
B7: chr12:85264020:85264122:+|3pUTR|ENSG00000133640|unk|total|mutant (ssRNA)
RNA: GGGAGUUCUACAGUCCGACGAUCCACCGUAUUUCAGUUACUUUCCACAGCUGUGUUGCUCAAUAACCGCAUCCAGUGAACUUCCGUAUUUUUUUGUUUUUCCUGUAUUUUAUUAAAAUAUUUCAUCCCGAGAUAACUGAAGUGCAACAGAGGAUUGAGCAUCA
B8: chr8:25429562:25429664:-|3pUTR|ENSG00000104756|unk|FALSE|unique (ssRNA)
RNA: GGGAGUUCUACAGUCCGACGAUCAGAAAAGCACUCAUUUAAUAGAUGUAGGGAAACUAGAUAUUGCUGCCUUUUGAAUGGGGUAGGGGGGUUUACCUGGUUUUAUGACCAGGCAUAGUAUCUAUUAUAUUUGCUUUUAAAUAGCAACAGAGGAUUGAGCAUCA
B9: chr12:120444061:120444162:-|3pUTR|ENSG00000170855|unk|total|mutant (ssRNA)
RNA: GGGAGUUCUACAGUCCGACGAUCAAUUGUCAACCUGCAUAUCCUAAAAAUGUCAAAAUGCUGCAUCUGGUUAAAUGUCGGGGCCGGGGGGAAGCUGAAGGUGCUCGCUUCAUUUGCCUUGUUUACUCAUCCUGCCCUGUAAUGCAACAGAGGAUUGAGCAUCA
B10: chr3:66380370:66380471:-|CDS|ENSG00000144749|msi1|total|mutant (ssRNA)
RNA: GGGAGUUCUACAGUCCGACGAUCCGGUCAAGUGGGGGUCUGACAGGUUCGUUCUUUCCUUGCCGGGGAUUCUUCCUGGACUUCCGCAAGGUUGUAUCACCCGGACUCCACAGAGCUACAGCCUGCAUCUUCAUUAACUUCAGGCAACAGAGGAUUGAGCAUCA
B11: chrY:12776687:12776788:+|CDS|ENSG00000114374|msi1|total|mutant (ssRNA)
RNA: GGGAGUUCUACAGUCCGACGAUCGUUUUUGAUGGUGACAAAAACAGCAUUAAUUGUGCAAGACAAGAAGCCAUUCGAAUGGUCCGAGUAUUAACUGUUAUAAAAGAGUACAUUAAUGAAUGUGACAGUGAUUAUCACAAGGAACAACAGAGGAUUGAGCAUCA
B12: chr9:136477283:136477384:-|CDS|ENSG00000148396|msi1|FALSE|unique (ssRNA)
RNA: GGGAGUUCUACAGUCCGACGAUCGCCCCCGCAGGGUUUUCUCAGCACCCCGGUUUGCUUGUUCCUCACACACAUGCCAGAGAUAGCUCUCAGGGACCCUGUGAGCCCCUGCCUGGACCUCUGACACAGCCCAGAGCACAUGCCCAACAGAGGAUUGAGCAUCA
B13: chr1:162523450:162523604:+|3pUTR|ENSG00000152332|msi1|FALSE|unique (ssRNA)
RNA: GGGAGUUCUACAGUCCGACGAUCAGACUAAGUUGUGCCAGAUGUAAAUCAACCCCUCUUUUAGUUUACUUUAGACUUUGUAUUAGCUCAUCUUUUUUGUAGUAAAUCUAUAGUUUUAAGGUUUCUCAAGAUGUGGCUCUACCUCAACAGAGGAUUGAGCAUCA
B14: ENSG00000107863:be:win_2701|CDS|ENSG00000107863|bound_else_gene|NA|bound_elsewhere_windowed (ssRNA)
RNA: GGGAGUUCUACAGUCCGACGAUCUCUAGUCUGAAGGGAAUCAAGAUCGCAGACAGCCAAAAGUCAUCAGAAGACUCUGGGUCCAGAAAAGAUUCUUCCUCAGAGGUCUUCAGUGAUGCUGCCAAGGAAGGGUGGCUUCAUUUCCAACAGAGGAUUGAGCAUCA
B15: ENSG00000107863:be:win_4201|CDS|ENSG00000107863|bound_else_gene|NA|bound_elsewhere_windowed (ssRNA)
RNA: GGGAGUUCUACAGUCCGACGAUCAAGGAUCAGUAUAGCAGGGAACUGCUUGUGUCCUCCAUCUUUGCAGCUGCUAGUCGCAAGAGGAAGAAGCCGAAAGAAAAAGCACAGCCUAGCAGCUCAGAAGAUGAACUGGACAAUGUACAACAGAGGAUUGAGCAUCA
B16: chr5:160402147:160402258:-|3pUTR|ENSG00000164609|unk|FALSE|unique (ssRNA)
RNA: GGGAGUUCUACAGUCCGACGAUCAUGGUUUACAUUACCGUUUGUUUUCAUUGUGAUUGCCCCUAUGUAACAAUCAUGAAUAUUAGAUUUUUUAAAUUGUAGAAUAUCCUAAUAUUUAUAGCCAGCAGCUGUUACUUUGUUUGUCAACAGAGGAUUGAGCAUCA
B17: chr1:35359206:35359314:+|CDS|ENSG00000146463|unk|total|mutant (ssRNA)
RNA: GGGAGUUCUACAGUCCGACGAUCAAAGACUUUCCUAAACAAUUUGAUCAGGUUUCUGUCUUUAAAUCAAUACGGAAAGAUUUCCGUCCCGUAAGAGAAAACAGCAAAGAGACAUUUUCUGGAAAGGAGAAAAACCGAGACCUACAACAGAGGAUUGAGCAUCA
B18: chr10:68791452:68791550:+|3pUTR|ENSG00000060339|msi1_unk|total|mutant (ssRNA)
RNA: GGGAGUUCUACAGUCCGACGAUCCCCGCCUUCAAAUUAUUAAACACUCCUUGAGUGAAAUAAUUUUGCAUUGCAAAGUGUUUCCGGAUGAACUUUGUUACCGUUUUAACUCCAAUAAAGUUCAUCAGUUUAAUUGACUGCCGUCAACAGAGGAUUGAGCAUCA
B19: chr2:105361111:105361195:-|3pUTR|ENSG00000115641|msi1_unk|FALSE|overlapping (ssRNA)
RNA: GGGAGUUCUACAGUCCGACGAUCCUUUCUCACCCAGGCAAUCUUGCCUUCUGGUUUCUUCCAGCCACAUUGAGACUUUCUUCUAGUGCUUUUCAGUGAUACUCACGUUUGCUUAAACCCUUUAGUGCUUUGUGAUAGUUCAGUCAACAGAGGAUUGAGCAUCA
B20: chr4:7762510:7762611:-|3pUTR|ENSG00000196526|msi1|FALSE|unique (ssRNA)
RNA: GGGAGUUCUACAGUCCGACGAUCGUGCAAUAUUUCUUGGAGAAUUUGGAUGCCUAAGGCAUAAAGGAAAAAAACAGAGUUCAUAGUUUGAGCUGGUAUUUACCCCCUGGGUUUAAAAAUCAGAUUAACUUCUUGGUCUCCCGGCAACAGAGGAUUGAGCAUCA
B21: chr17:19904301:19906232:-|three_prime_utr|ENSG00000108599|control|control|control (ssRNA)
RNA: GGGAGUUCUACAGUCCGACGAUCAACAGCACUAUAUUUCUGAUCUGUCACUGUUGUUUCCAGGAGAGAAUGGGAGACAAUCCUAGACUUCCACCAUAAUGCAGUUACCUGUAGGCAUAAUUGAUGCACAUGAUGUUCACACAGCAACAGAGGAUUGAGCAUCA
B22: chr10:103302795:103303961:-|three_prime_utr|ENSG00000156374|control|control|control (ssRNA)
RNA: GGGAGUUCUACAGUCCGACGAUCGUCUGCUUGUCCUUCAUUAUGGUCUUGUGGUUUCUCCUCUGAAGAUAACUUGAAGAUUCUAGGCACAUUAUGAGGAGGGAAACAAAGGAGGCUUCUGCAGGACUGCAUCUCACCAAAGAUCAACAGAGGAUUGAGCAUCA

These binders were tested against MSI1 full-length (mouse, UniProt Q61474 1-362) (assay: nsRBNS (natural sequence RNA bind-n-seq); RBNS binding buffer (assumed for nsRBNS): 25 mM Tris pH 7.5, 150 mM KCl, 3 mM MgCl2, 0.01% Triton X-100, 500 ug/ml BSA, 20 U/ml SUPERase-In, 4 C; UNK is unkempt and MSI1 is Musashi-1; names of the RNAs are library labels; protein concentration not given here; high values mean tight binding).
Sequence of UniProt Q61474 (Q61474 whole entry): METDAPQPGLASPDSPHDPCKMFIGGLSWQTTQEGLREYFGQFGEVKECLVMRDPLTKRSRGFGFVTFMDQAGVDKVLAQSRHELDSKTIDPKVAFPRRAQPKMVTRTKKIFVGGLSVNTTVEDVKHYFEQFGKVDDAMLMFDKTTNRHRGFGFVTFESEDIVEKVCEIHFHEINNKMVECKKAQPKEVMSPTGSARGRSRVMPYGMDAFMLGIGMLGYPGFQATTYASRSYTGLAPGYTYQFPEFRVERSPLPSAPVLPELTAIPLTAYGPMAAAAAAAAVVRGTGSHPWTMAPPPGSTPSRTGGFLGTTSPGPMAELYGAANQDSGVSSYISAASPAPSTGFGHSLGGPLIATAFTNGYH

Row | Binder | binding signal [enrichment R]
1 | B1 | 1.8
2 | B2 | 0.698
3 | B3 | 0.246
4 | B4 | 0.465
5 | B5 | 0.572
6 | B6 | 0.457
7 | B7 | 2.61
8 | B8 | 2.16
9 | B9 | 0.436
10 | B10 | 0.394
11 | B11 | 0.375
12 | B12 | 0.519
13 | B13 | 19.3
14 | B14 | 0.382
15 | B15 | 0.381
16 | B16 | 10.2
17 | B17 | 0.189
18 | B18 | 0.22
19 | B19 | 1.08
20 | B20 | 0.306
21 | B21 | 1.13
22 | B22 | 0.569
